Experimental data published in PubChem BioAssay AID2147 (National Center for Advancing Translational Sciences (NCATS), 2009).
Among all 230,000 compounds or so, about 3,600 (1.6%) were called active. Inconclusive means that the source gave no clear call. Such entries were picked first, then a sample of the others. Calls follow the shape of the dose curve; as a rule, active = well fitted inhibition curve with a large enough effect (not every such curve was filed as active); inconclusive = small, poorly fitted or top-dose-only effect, or another doubt; inactive = no such curve, though single readings can be large or run the other way. A potency beside an inconclusive call is a rough fit, not a confirmed value.

target: Lysine-specific demethylase 4E (Homo sapiens) (UniProt B2RXH2); assay: qHTS Assay for Inhibitors of Human Jumonji Domain Containing 2E (JMJD2E); settings: JMJD2E catalytic domain, FDH-coupled NADH fluorescence (FDH is formaldehyde dehydrogenase); series mostly up to 57.1 µM; activity change, negative = inhibition: at the top concentration
Also: nearly all actives have a fitted effect of over 50% in size.
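For activity change, negative = inhibition in this document: 0% = wells with enzyme and -100% = buffer wells without enzyme.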
Potency is read from the fitted curve at half-maximal effect; tags tell the direction and shape of the fitted curve.

UniProt B2RXH2, sequence (B2RXH2 whole entry, looked up, the tested form may be a part): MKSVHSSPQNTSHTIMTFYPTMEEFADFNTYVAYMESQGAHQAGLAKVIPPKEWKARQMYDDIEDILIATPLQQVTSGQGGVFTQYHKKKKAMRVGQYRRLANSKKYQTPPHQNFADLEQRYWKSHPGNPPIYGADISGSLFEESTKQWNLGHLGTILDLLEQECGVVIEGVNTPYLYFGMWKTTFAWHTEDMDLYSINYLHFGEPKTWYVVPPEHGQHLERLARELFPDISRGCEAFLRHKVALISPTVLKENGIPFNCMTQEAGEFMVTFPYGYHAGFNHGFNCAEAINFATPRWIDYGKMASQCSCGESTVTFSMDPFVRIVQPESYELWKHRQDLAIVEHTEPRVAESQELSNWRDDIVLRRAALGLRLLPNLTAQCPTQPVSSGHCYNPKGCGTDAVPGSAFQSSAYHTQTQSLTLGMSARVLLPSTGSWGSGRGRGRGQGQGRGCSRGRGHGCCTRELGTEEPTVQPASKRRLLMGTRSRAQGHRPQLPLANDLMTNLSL

Row | Compound | Potency | activity change, negative = inhibition
1 | COc1ccc(Cn2c(N)c(C#N)c3nc4ccccc4nc32)cc1 | inconclusive: 12.6 µM [inhibitor, partial curve] | 
2 | CCCNC(=O)Nc1cc(OCC)c(N2CCOCC2)cc1OCC | inconclusive: 15.8 µM [inhibitor, partial curve] | 
3 | COc1cc2nc3c(c([Si](C)(C)C(C)(C)C)c2cc1OC)Cn1c-3cccc1=O |  | inactive: -4.16%
4 | CCCSC1=C(C#N)C2(CCCCC2)C(C#N)=C(N)N1 |  | inactive: -20.3%
5 | COCCCNc1ncnc2c1sc1nc(-c3ccco3)c3c(c12)CC(C)(C)OC3 | inconclusive: 4.47 µM [inhibitor, full curve] | 
6 | CCn1cc(C(=O)O)c(=O)c2cc(S(=O)(=O)N(C)C)ccc21 | inconclusive: 44.7 µM [inhibitor, partial curve, poor fit] | 
7 | COCCOc1ccc(C(F)(F)F)cc1Nc1nc2ccccc2o1 | inconclusive: 28.2 µM [inhibitor, partial curve] | 
8 | CCc1c2c(nc3c(C(C)C)cccc13)-c1cccc(=O)n1C2 | inconclusive: 31.6 µM [inhibitor, partial curve] | 
9 | O=CN1CCN(C(=O)c2ccc(-c3nc4ccccc4s3)s2)CC1 | inconclusive: 22.4 µM [inhibitor, partial curve] | 
10 | N#CC1(NC(=O)CN2CCN(S(=O)(=O)c3ccccc3F)CC2)CCCC1 |  | inactive: 5.19%
11 | CCCCCc1ccc(S(=O)(=O)Nc2cc(C)ccn2)cc1 | inconclusive: 39.8 µM [inhibitor, single point] | 
12 | O=C(Nc1ccc2c(c1)nc1n2CCN(C2CCCCC2)C1)NC1CCCCC1 | inconclusive: 25.1 µM [inhibitor, partial curve] | 
13 | O=C(Nc1ccc(-c2nc3ccccc3[nH]2)cc1)C1CCCO1 (stereo unspecified) | inconclusive: 31.6 µM [inhibitor, partial curve] | 
14 | CCOC(=O)C1CCN(C(=O)c2cc3c(=O)n4ccccc4nc3n2C)CC1 | inconclusive: 31.6 µM [inhibitor, partial curve] | 
15 | CCOc1cc2c(cc1OC)C(NC(=O)C(F)(F)F)CC2=O (stereo unspecified) | inconclusive: 39.8 µM [inhibitor, single point] | 
16 | CCn1c(=O)n(CC(=O)Nc2ccc(F)cc2)c(=O)c2ccccc21 | inconclusive: 31.6 µM [inhibitor, single point] | 
17 | CCCCc1cc(=O)oc2cc(C)cc(OCc3nn[nH]n3)c12 | inconclusive: 25.1 µM [inhibitor, partial curve] | 
18 | c1ccc(-c2oc3ncnc(NCCN4CCOCC4)c3c2-c2ccccc2)cc1 | inconclusive: 31.6 µM [inhibitor, partial curve] | 
19 | Cc1cc(OCCn2ccnc2)cc(C(C)C)c1 | inconclusive: 39.8 µM [inhibitor, single point] | 
20 | CCN1/C(=C/C(=O)c2ccco2)Sc2ccccc21 | inconclusive: 25.1 µM [inhibitor, partial curve] | 
21 | CC(C)OC(=O)c1c(NC(=O)CCC(=O)O)sc2c1CCCCC2 |  | inactive: -3.71%
22 | Cc1ccc(S(=O)(=O)NC(CC(C)C)C(=O)Oc2ccc3c4c(c(=O)oc3c2)CCC4)cc1 (stereo unspecified) | inconclusive: 25.1 µM [inhibitor, partial curve] | 
23 | Cc1cccc(/C=C/C(=O)c2ccc(N3CCOCC3)cc2)c1 |  | inactive: -10.6%

Row | Compound | Potency | activity change, negative = inhibition
24 | O=C1CC(c2ccco2)CC2=C1C(c1ccccc1)n1nc(C(F)(F)F)nc1N2 (stereo unspecified) | inconclusive: 25.1 µM [inhibitor, partial curve] | 
25 | Cc1nnc(SC(C)C(=O)Nc2nccs2)s1 (stereo unspecified) |  | inactive: -6.67%
26 | CCOC(=O)N1CCN(C(=O)C(=O)NN)CC1 |  | inactive: 171%
27 | Cc1nccn1-c1c2c(c(C#N)c3nc4ccccc4n13)CCC2 | inconclusive: 25.1 µM [inhibitor, single point] | 
28 | O=C(CSc1nnc2n(C3CCCC3)c(=O)c3ccccc3n12)N1CCCCCC1 |  | inactive: 6.32%
29 | COc1cc(NC(=O)c2ccco2)c(OC)cc1NC(=O)CCC(=O)Nc1cc(C)ccc1C | inconclusive: 35.5 µM [inhibitor, single point] | 
30 | Cc1nnc(Nc2ccc(O)cc2)[nH]c1=O |  | inactive: -9.16%
31 | CCn1c(SCC(=O)N2CCCc3ccccc32)nc2ccccc2c1=O |  | inactive: -0.998%
32 | O=C(CSc1ccc(-c2ccco2)nn1)NCCc1ccccc1 | inconclusive: 25.1 µM [inhibitor, partial curve] | 
33 | O=C(Nc1ccccc1-c1nc2ccccc2[nH]1)c1ccc(N2C(=O)CCC2=O)cc1 | inconclusive: 22.4 µM [inhibitor, partial curve] | 
34 | CC(=O)N(C)c1ccc(NC(=S)Nc2ccccc2)cc1 |  | inactive: -2.91%
35 | O=C(O)c1cccc(NC2=C(N3CCOCC3)C(=O)c3ccccc3C2=O)c1 | inconclusive: 28.2 µM [inhibitor, partial curve] | 
36 | Cc1ccc(NC(=O)CN(C)C(=O)c2cc3ccccc3o2)cc1 |  | inactive: -5.4%
37 | CNC(=S)N/N=C(\C)c1ccc(N2CCOCC2)cc1 | inconclusive: 11.2 µM [inhibitor, partial curve] | 
38 | CN1CCN(C(=O)c2ccc(C(C)(C)C)cc2)CC1 |  | inactive: 3.84%
39 | CCCc1cc(=O)n2[nH]c(-c3ccccc3)cc2n1 | inconclusive: 31.6 µM [inhibitor, partial curve] | 
40 | O=C(Nc1nc2c(s1)CCCC2)Oc1ccccc1 |  | inactive: -1.17%
41 | COCc1nnc(NC(=O)c2ccc(S(=O)(=O)N(CC(C)C)CC(C)C)cc2)o1 | inconclusive: 39.8 µM [inhibitor, single point] | 
42 | COc1ccc(-c2cc(-c3ccccc3)nc(-c3ccc4c(c3)NC(=O)CO4)c2)cc1 | inconclusive: 28.2 µM [inhibitor, partial curve] | 
43 | O=C(NC(NC(=S)Nc1ccccc1C(=O)O)C(Cl)(Cl)Cl)c1cccc([N+](=O)[O-])c1 (stereo unspecified) | inconclusive: 28.2 µM [inhibitor, partial curve] | 
44 | O=C1NC(c2cccs2)Nc2ccccc21 (stereo unspecified) | inconclusive: 20 µM [inhibitor, partial curve] | 
45 | COc1ccc(C(=S)Nc2ccc(N(C)C)cc2)cc1 |  | inactive: 1.61%
46 | Cn1c(-c2cc3ccc(OC(=O)C(C)(C)C)cc3oc2=O)nc2ccccc21 | inconclusive: 14.1 µM [inhibitor, partial curve] | 
